# Reference: PubChem BioAssay AID1347165 (National Center for Advancing Translational Sciences (NCATS), 2019)
# Screen size: about 220,000 compounds; about 5,700 (2.6%) were called active. The inconclusive results got no clear call from the source; some entries with a clear call stand among them for comparison. Calls follow the shape of the dose curve; as a rule, active = well fitted inhibition curve with a large enough effect; inconclusive = small, poorly fitted or top-dose-only effect; inactive = no such curve, though single readings can be large or run the other way. Potencies beside an inconclusive call are fits to weak or partial responses and may not hold up.
# Target: Lysine-specific demethylase 5B (Homo sapiens) (UniProt Q9UGL1)
# Chain of UniProt Q9UGL1 (Q9UGL1 whole entry, looked up): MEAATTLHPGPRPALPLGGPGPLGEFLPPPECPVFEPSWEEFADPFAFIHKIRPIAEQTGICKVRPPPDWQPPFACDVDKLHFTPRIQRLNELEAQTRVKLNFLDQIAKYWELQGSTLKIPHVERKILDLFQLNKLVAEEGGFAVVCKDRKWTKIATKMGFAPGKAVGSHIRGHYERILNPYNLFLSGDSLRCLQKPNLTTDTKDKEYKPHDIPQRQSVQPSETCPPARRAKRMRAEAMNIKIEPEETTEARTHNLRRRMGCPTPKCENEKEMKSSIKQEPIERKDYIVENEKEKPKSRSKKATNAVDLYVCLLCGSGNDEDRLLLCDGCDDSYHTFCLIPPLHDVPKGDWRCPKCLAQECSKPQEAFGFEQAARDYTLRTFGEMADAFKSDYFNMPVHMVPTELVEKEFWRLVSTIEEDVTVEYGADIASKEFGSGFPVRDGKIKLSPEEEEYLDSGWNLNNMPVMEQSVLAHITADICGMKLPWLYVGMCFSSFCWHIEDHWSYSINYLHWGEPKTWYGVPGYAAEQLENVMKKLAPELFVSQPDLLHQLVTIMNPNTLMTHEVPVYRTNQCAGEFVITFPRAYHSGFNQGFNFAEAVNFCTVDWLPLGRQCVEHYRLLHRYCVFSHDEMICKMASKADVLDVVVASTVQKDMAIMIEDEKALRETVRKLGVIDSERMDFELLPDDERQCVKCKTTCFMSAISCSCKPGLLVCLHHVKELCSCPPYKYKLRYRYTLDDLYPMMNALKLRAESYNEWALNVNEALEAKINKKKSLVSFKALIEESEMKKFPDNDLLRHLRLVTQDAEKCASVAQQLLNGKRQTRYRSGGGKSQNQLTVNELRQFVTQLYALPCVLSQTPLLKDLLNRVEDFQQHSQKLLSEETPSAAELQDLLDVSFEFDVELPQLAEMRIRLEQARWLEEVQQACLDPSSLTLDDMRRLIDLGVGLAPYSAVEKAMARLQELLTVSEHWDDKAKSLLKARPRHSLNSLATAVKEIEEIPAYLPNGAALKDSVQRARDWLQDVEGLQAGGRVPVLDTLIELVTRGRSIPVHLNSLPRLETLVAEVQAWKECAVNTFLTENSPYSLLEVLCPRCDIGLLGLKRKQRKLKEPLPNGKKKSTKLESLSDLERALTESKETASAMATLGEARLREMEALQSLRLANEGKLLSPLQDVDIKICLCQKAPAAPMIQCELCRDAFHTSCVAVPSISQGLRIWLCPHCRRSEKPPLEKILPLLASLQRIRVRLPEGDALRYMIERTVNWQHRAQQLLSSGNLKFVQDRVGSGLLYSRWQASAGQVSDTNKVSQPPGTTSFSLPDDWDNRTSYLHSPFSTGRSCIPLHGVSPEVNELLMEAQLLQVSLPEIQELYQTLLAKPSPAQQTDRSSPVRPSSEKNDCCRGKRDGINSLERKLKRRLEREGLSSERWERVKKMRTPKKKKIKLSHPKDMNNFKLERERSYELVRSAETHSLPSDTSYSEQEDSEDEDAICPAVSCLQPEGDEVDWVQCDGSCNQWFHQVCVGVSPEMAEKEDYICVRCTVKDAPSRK
# Assay: Primary screen for KDM5B Histone Demethylases FDH-coupled qHTS; also: nearly all actives have a fitted effect of over 70% in size; as to activity change, negative = inhibition: 0% is about no effect
# Details: FDH-coupled NADH fluorescence (FDH is formaldehyde dehydrogenase); activity change, negative = inhibition: at 57.7 µM (top of the series) unless noted
# Procedure, shortened: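 qHTS format, multiple compound concentrations. Buffer 50 mM HEPES pH 7.5/0.01% Tween-20; 200 nM KDM5BΔAP final; 10 min compound preincubation; substrate-mix levels 12.5 µM peptide, 25 µM α-KG, 0.25 mM NAD⁺; 30 min RT; ΔRFU.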
# Potency is read from the fitted curve at half-maximal effect; tags tell the direction and shape of the fitted curve.
SMILES,Potency,"activity change, negative = inhibition"
Cc1ccc(NC(=O)Cn2c(=O)c3c(C)cc(C)nc3n(-c3ccccc3)c2=O)c(Cl)c1,inactive,–
Cc1ccc(S(=O)(=O)N2CCC3(CC2)SCC(=O)N3Cc2ccco2)cc1,"inconclusive: 25.1 µM [inhibitor, partial curve, poor fit]",–
O=c1nc2n(-c3cccc(Cl)c3)c3cccc(Cl)c3cc-2c(=O)[nH]1,"inconclusive: 28.2 µM [inhibitor, partial curve, poor fit]",–
Cc1cc(Nc2cccc(Cl)c2)nc2ccc(NC(=O)Cc3c(F)cccc3Cl)cc12,"inconclusive: 31.6 µM [inhibitor, partial curve, poor fit]",–
Cn1c(=O)c2nc(SCC(=O)O)n(Cc3ccccc3)c2n(C)c1=O,inactive,–
Cc1ccc(-c2cc(N3CCCN(C(=O)Cc4ccsc4)CC3)n[nH]2)cc1C,"inconclusive: 25.1 µM [inhibitor, single point]",–
CN[C@H](C(=O)N[C@@H]1C=C(C(=O)N[C@H](CC(C)C)C(N)=O)C[C@@H](O)[C@@H]1O)C(C)C,"inconclusive: 35.5 µM [inhibitor, single point]",–
CCOc1ccccc1CN1CCC2(CCN(C(=O)c3ccccc3F)CC2)Oc2ccccc21,"inconclusive: 28.2 µM [inhibitor, partial curve]",–
CCN1CCN(C(=O)c2cc(-c3ccco3)nc3ccccc23)CC1,"inconclusive: 25.1 µM [inhibitor, partial curve, poor fit]",–
CC(=O)NCc1ccc(-c2csc(Nc3cccc(C(F)(F)F)c3)n2)o1,"inconclusive: 28.2 µM [inhibitor, partial curve, poor fit]",–
O=S(=O)(NCC(c1ccco1)N1CCN(c2ccc(F)cc2)CC1)c1cc(F)ccc1F (configuration not stated),"inconclusive: 15.8 µM [inhibitor, partial curve, poor fit]",–
CCOC(=O)c1cc2cc(C(F)(F)F)ccc2[nH]1,inactive,–
CC(C)(C)CC(=O)Nc1cnc(-c2cccc(Cl)c2)nc1,inactive,–
Cc1cc(=O)oc2cc(OCC(=O)N3CCOCC3)c(Cl)cc12,"inconclusive: 28.2 µM [inhibitor, partial curve, poor fit]",–
CCC(C)Oc1ccccc1/C=C(\C#N)c1nc2ccccc2[nH]1 (configuration not stated),inactive,–
CN(C)c1ccc(-c2ccnc(N[C@H]3CO[C@H]4[C@@H]3OC[C@H]4OC(=O)NCc3ccccc3)n2)cc1,active: 28.2 µM,–
CCS(=O)(=O)N1CCc2cc(C(=O)Nc3cc(C)cc(C)c3)ccc21,"inconclusive: 15.8 µM [inhibitor, partial curve, poor fit]",–
COc1cc(NC(=O)C2(C#N)CCCC2)c(OC)cc1NC(=O)c1ccccc1,inactive,–
COc1ccc(-c2nnc(C[C@@H]3C[C@@H](C(C)C)[C@H](CN(C)CCc4ccccn4)C=C3C)o2)cc1,"inconclusive: 28.2 µM [inhibitor, single point]",–
COc1cc(F)ccc1-c1cc(C(=O)NCc2cccnc2)c2c(c1)ncn2C,active: 35.5 µM,–
COCCN1CC(CO)C2(CCN(Cc3ccc(OC)cc3OC)CC2)C1 (configuration not stated),"inconclusive: 15.8 µM [inhibitor, partial curve]",–
O=C(NCCCN1CCOCC1)c1cc(-c2ccc(Cl)s2)nc2ccccc12,"inconclusive: 1.78 µM [inhibitor, full curve, poor fit]",–
O=C(CCC[C@H]1NC[C@@H]2C[C@H]1CN(Cc1ccccc1)C2)Nc1ccc(F)cc1F,inactive,–

SMILES,Potency,"activity change, negative = inhibition"
O=C(NCCOc1ccccc1)c1cc(COc2ccccc2)[nH]n1,inactive,–
COc1ncccc1CN1CC[C@@H]2OCC(=O)N(Cc3ccccc3)[C@H]2CC1,"inconclusive: 56.2 µM [inhibitor, single point]",–
Cc1c(C(C)NC(=O)c2cc(CC(C)C)nn2C)cnn1-c1ccccc1 (configuration not stated),inactive,–
CN(C(=O)c1cnc(N2CCOCC2)c2ccccc12)c1ccccc1F,"inconclusive: 25.1 µM [inhibitor, single point]",–
CCOC(=O)CCCOc1cccn2c(=O)c(-c3cc(C)n(-c4ccccc4C)n3)c(C)nc12,active: 31.6 µM,–
CCOc1cc(/C=C/C(=O)OCc2cccc(C)c2)cc(Cl)c1OC,"inconclusive: 28.2 µM [inhibitor, single point]",–
COc1ccc(-n2nc(C3CCN(Cc4cccn4C)CC3)[nH]c2=O)cc1,inactive,–
COc1ccc(/C=C/c2nc(C#N)c(NCc3ccc4c(c3)OCO4)o2)cc1OC,"inconclusive: 22.4 µM [inhibitor, partial curve, poor fit]",–
COCCN1CCC2(C1)CN(C)c1ccc(C(=O)Nc3ccccc3)cc12 (configuration not stated),active: 25.1 µM,–
Cc1ccc2c(C(=O)N3CCCCCC3)cc(NC(=O)C3CC3)cc2n1,active: 28.2 µM,–
N#C/C(=C\c1ccccc1O)C(=O)Nc1ccccn1,"inconclusive: 28.2 µM [inhibitor, partial curve, poor fit]",–
O=C(NC1CCS(=O)(=O)C1)c1cc(-c2ccco2)on1 (configuration not stated),inactive,–
Cc1cccc2nc(-c3ccc(O)cc3)c(Nc3ccc4c(c3)OCCO4)n12,"inconclusive: 25.1 µM [inhibitor, partial curve, poor fit]",–
CC(=O)Nc1ccc(-c2nc3ccccc3s2)cc1C,"inconclusive: 25.1 µM [inhibitor, partial curve, poor fit]",–
O=C(c1cnc(N2CCOCC2)c2ccccc12)N1CCN(c2ccc(F)cc2)CC1,inactive,–
CC1(C)CC(=O)c2cc(-c3nc(-c4ccc(Br)cc4)cs3)c(=O)n(-c3ccccc3)c2C1,"inconclusive: 7.94 µM [inhibitor, partial curve, poor fit]",–
COc1ccc(-c2ocnc2C(=O)Nc2cc(F)ccc2F)cc1OC,"inconclusive: 2 µM [inhibitor, partial curve, poor fit]",–
Cc1cccc(-c2noc(CN(C(C)C)S(=O)(=O)c3ccc(Br)cc3)n2)c1,–,inconclusive: -31.9% [inhibitor]
CN1CCN(c2ccc(NC(=O)c3cccc(S(=O)(=O)NCc4cccs4)c3)cc2)CC1,inactive,–
Cc1ccc(NC(=S)NNc2ccc(C(=O)O)cc2[N+](=O)[O-])cc1C,"inconclusive: 14.1 µM [inhibitor, partial curve, poor fit]",–
O=C(Nc1cccc(C(F)(F)F)c1)c1c(-c2ccc(F)cc2)nc2n1CCS2(=O)=O,inactive,–
CCOC(=O)CSc1nc2sc3c(c2c(=O)n1CC)CCCC3,"inconclusive: 2.51 µM [inhibitor, partial curve, poor fit]",–
O=C(NCc1ccc(-c2cnc3c(Oc4ccccc4)nccn23)cc1)c1cccc(O)c1,"inconclusive: 56.2 µM [inhibitor, partial curve, poor fit]",–

SMILES,Potency,"activity change, negative = inhibition"
CCCC(=O)Nc1ccc2nn(-c3ccc(CC)cc3)nc2c1,"inconclusive: 8.91 µM [inhibitor, partial curve, poor fit]",–
Cc1oc(-c2ccccc2)nc1CC(=O)NC1CCN(CC(N)=O)CC1,inactive,–
Cn1c(=O)c2c(-c3ccccc3Br)n(C(C)(C)C)cc2n(C)c1=O,–,inconclusive: -37.1% [inhibitor]
Nc1c(C(=O)c2ccc3c(c2)OCO3)sc(Nc2ccccc2F)c1S(=O)(=O)c1ccccc1,"inconclusive: 1.41 µM [inhibitor, full curve, poor fit]",–
O=C(c1cc2n(n1)CC(c1ccc(Cl)cc1)OC2)N1CCN(c2ccc(Cl)cc2)CC1 (configuration not stated),inactive,–
CCCCOC(=O)c1ccc(NC(=O)c2ccc3c(c2)CCN3S(=O)(=O)c2ccccc2)cc1,"inconclusive: 1.78 µM [inhibitor, full curve, poor fit]",–
O=C(Nc1ccc(F)cc1F)c1ccc(-c2ccccc2)s1,"inconclusive: 25.1 µM [inhibitor, partial curve, poor fit]",–
COc1ccc(NC(=O)c2ccc3c(c2)C2(CCN(C)C2)CN3CC2CC2)cc1 (configuration not stated),"inconclusive: 28.2 µM [inhibitor, partial curve]",–
Nc1nccnc1C(=O)NCC(F)(F)F,"inconclusive: 22.4 µM [inhibitor, partial curve, poor fit]",–
O=C1/C(=C/c2ccco2)SC(=S)N1CC1CCCO1 (configuration not stated),"inconclusive: 39.8 µM [inhibitor, single point]",–
CCN1c2cc(C(=O)NCc3ccc(SC)cc3)ccc2C(=O)N2CCCCCC21 (configuration not stated),"inconclusive: 35.5 µM [inhibitor, partial curve, poor fit]",–
Cc1noc(-c2cccn3c(CNC(=O)c4ccccc4)nnc23)n1,active: 28.2 µM,–
COCC(C)NS(=O)(=O)c1ccc(C)c(C)c1 (configuration not stated),inactive,–
COc1ccc(Br)cc1/C=C(\C#N)C(N)=C(C#N)C#N,"inconclusive: 35.5 µM [inhibitor, single point]",–
Cc1ccc(C)c(NC(=O)CCn2cnnn2)c1,–,inconclusive: -31% [inhibitor]
COc1ccc(-c2nnc([C@H]3CCN(Cc4ncc[nH]4)C3)o2)cc1,active: 35.5 µM,–
COc1cccc(N2C(=O)NC(=NC3CCCC3)C23CCCN(Cc2ccc(N(C)C)cc2)C3)c1 (configuration not stated),inactive,–
Cc1cc2oc(C(=O)Nc3ccc(F)cc3)cc(=O)c2cc1C,inactive,–
Cc1nc2c(c(C)c1CCC(=O)NCCN1CCCC1)c(=O)n(C)c(=O)n2C,"inconclusive: 25.1 µM [inhibitor, single point]",–
COc1cc(C)c(CN(C)CC(O)COc2ccc(C)cc2)cc1OC (configuration not stated),inactive,–
COc1ccc(-n2c(CCC(=O)O)ccc2-c2ccccc2)cc1,"inconclusive: 31.6 µM [inhibitor, partial curve, poor fit]",–
